Source: the supplement of paper PMC3334620
In all, about 33,000 sequences were measured (“E-score (-0.5 to 0.5)”: median about -0.01, highest 2% from about 0.26 on). Some of the results follow.

Biological target: Ste12 (UniProt P13574)
Assay: PBM E-score (8-mer binding enrichment) (E-score (-0.5 to 0.5)); higher = stronger / more preferred TF binding; most listed sequences are background and not binding sites
Conditions: protein concentration: 200 nM; construct: GST-DNA-binding domain
How it was run: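 Universal all-10-mer Agilent arrays, double-stranded by primer extension on fresh or once-stripped slides, were probed with about 100-200 nM GST-tagged yeast transcription factors made by PURExpress. Fluorescent anti-GST detected bound protein, and masliner normalised the scans. E-scores from the Universal PBM Analysis Suite were given to each ungapped eight-base word pooled with its reverse complement.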

Sequence	PBM E-score
CCTGGACC	-0.0982
ACCCCACG	-0.159
ATCGGAAC	0.0411
CAGGCAAA	0.0381
AAGTCGCC	-0.147
GTGGGCAA	-0.097
AGTCCTCG	-0.0399
AGGCCTGC	-0.246
GGAGCGGA	-0.151
CGGGAACG	-0.063
ACCCCGAG	-0.0693
ATCACACA	-0.0458
CATCGACA	-0.118
AAGTGTGG	0.00615
CATGAATA	0.0352
AACGCCTA	0.118
ACACACTC	0.0305
GACGCATA	0.15
ACTGACGG	-0.128
ACTCCCTC	-0.153
ACCATTGG	-0.0456
CCGTCGGC	-0.0522
ACCCAAGA	0.00479
AGCGAGCC	-0.0362
AGAGAGTC	-0.191

Sequence	PBM E-score
GACGTACA	-0.201
GTTTCAGA	0.484
AACCGCCA	0.0588
CCAGTCAC	-0.00691
CTGCGGCA	-0.028
CGTTACCC	-0.051
GAAATAGC	0.0443
CAACCCGG	-0.135
TGATCAAA	0.156
ATAGTAAA	0.169
CTCAGAAG	-0.0398
ACGGGTGG	0.172
CATAACAA	0.192
CCACCTAA	0.163
AGACCGCT	-0.0963
ATGCTAAC	-0.154
ACTCCGAC	0.118
AGCTCTGG	-0.169
CGCGCACA	0.125
AAAATGTC	0.188
CATCGAGA	-0.0275
CAATGGTG	-0.16
ATGGTTCC	-0.0349
GTGGGAGA	-0.164
CGACCGAG	-0.113

Sequence	PBM E-score
CAACTTGC	-0.0882
AAAATTGC	0.141
CTTCACCC	0.0896
TACAAGGA	0.168
GGCTCCTA	-0.212
AAATTCTT	0.111
TATCTGCA	-0.126
ACCTCCCG	0.0252
AATCCGGT	0.148
CAGGGGAC	-0.162
CGATGGCG	-0.121
AAGCCGGA	0.108
AACGTCGC	0.00995
CTTGAACA	0.112
CAAGAGCC	-0.00692
TTGAGAAA	0.231
GCGGACCA	0.0751
ATGTAATA	0.217
CACTGGGC	-0.188
GCTAATCC	0.0211
CAAGATCG	-0.0544
CTGTGGAA	0.0384
CTGTAAGC	-0.134
GGTGCATA	0.0482
AAACAATA	0.274

Sequence	PBM E-score
GTCTCGAA	0.13
AGTCTCTC	-0.145
ACGCTGCC	-0.108
ATTGGCAG	-0.0606
CAGCAAAG	0.0508
TATCTTGA	0.0383
TGCGCTAA	0.224
GCCGTTCC	0.053
GACTAGAC	-0.247
CAAACACG	0.17
CAGCCCGC	-0.108
GAAACCAC	0.164
ACGTGCAA	-0.102
GTTACGAA	0.0523
CACACCGG	0.0655
CACACGCA	0.0544
CCTGGTAG	-0.00862
CCTTATAC	0.00361
CAGTCACG	-0.146
CCGGTGCG	0.109
CAGTGGTC	-0.231
GGTCCTGA	-0.163
GGTAACAC	0.0298
CCCGAACC	0.0917
CAAACCAG	0.106

Sequence	PBM E-score
CCTAAGCC	-0.145
ATATACCG	0.123
CGCAGCTA	-0.133
AGTACACC	-0.00575
TAATGCGA	0.0398
CTTTCACC	0.0723
ACTCCACT	0.025
CTGCCAGA	-0.15
ACAGCTTG	-0.0148
AATTTTCA	0.165
GACACTCA	-0.109
CCACTCTA	-0.0143
ACCGTCCG	-0.025
AAATATTT	0.0442
CTGCTGGC	-0.245
ACATCTCG	-0.06
AGGCATTC	-0.075
AAGGATGC	-0.188
CCTGCTAG	-0.17
AAGAATCC	0.151
CCATGCGA	0.0417
CCCGCCCC	0.32
ATCACTAA	0.00159
AATGAGTG	0.0431
ATGCGGTC	0.0847

Sequence	PBM E-score
CTGATCGC	-0.184
TAATATAA	0.287
GAAGCGCC	0.177
TAGCTTAA	-0.0132
ACTATGCA	-0.018
GCTGACTA	-0.174
GACGCAAA	0.0718
ACGCACCG	0.0733
CGTTGCGA	0.00386
CTACTGAG	-0.123
TCCAAAGA	0.0392
CCTCAATA	-0.103
ATTACTGA	0.0666
GCGCTGAA	-0.0789
AAGAAAAA	0.158
ATGACCTG	0.115
GGTTGTGA	0.101
GGCGTCTA	-0.0213
TTAGACAA	0.116
AAGATGTG	0.0624
ACGCCCAC	0.117
GGACTACC	-0.198
AGGTGTAC	-0.0483
AGTTCCAT	-0.06
AAACACCT	0.104

Sequence	PBM E-score
TATCGTGA	-0.0366
GAGTACCA	0.0726
GGTAAACC	-0.0553
GCCATAAA	0.058
AATCCAAT	0.094
CCCAAGAA	0.0156
ATAACTCG	0.162
GTTATAAC	0.139
AATGCGAA	0.0356
GTACGTAA	-0.0604
AACAGAGT	0.173
ACCTTACT	0.124
TAAGGCGA	0.00976
GATGGATA	0.0412
AGTTCAAG	0.0102
ACCATCTA	-0.162
GCCTATGA	-0.215
CCATACTC	0.0988
AAGTTGAA	0.134
CATTTGCA	-0.00909
ATGTCTCG	-0.114
AGAACCTA	-0.0451
CGAGCTTC	0.0482
AGCGCGCA	0.131
AATCCCTC	0.0988

Sequence	PBM E-score
CCATACAG	-0.0334
ACCCCTGG	-0.181
ACTATAGA	-0.0802
AGCGGCAA	0.0352
GAGCCCCA	-0.204
AATTGAAC	-0.0364
ACCACCGG	-0.0277
ACTCACTC	0.00569
CAGCAAGC	-0.251
CACCACTC	-0.164
GTCACGCA	-0.0567
GCAGTGCC	-0.244
ATATGTCA	0.13
CAAGGTGA	0.121
ATAACCGA	0.128
TGGAACCA	0.136
GGTCACGA	-0.00535
CGGCAGAA	-0.022
CCATTTGC	0.061
ACGAACCA	-0.00982
CAAGTAAG	-0.0127
AAACGATT	0.165
CAGCGAGG	-0.11
GCATCTGA	-0.236
GCCTATAC	-0.15

Sequence	PBM E-score
AGATTCCT	-0.00654
CTGATGAA	0.108
AACCTGTC	-0.0511
ATTCGACC	0.0126
CGCGTTCC	0.0931
TGTAATAA	0.163
CTACCAGA	0.114
ACGACACA	0.105
ATAGCTCG	-0.0872
GAGTGAGA	-0.0902
ATAGCCAT	-0.109
AGTTGGGA	0.157
CGCAGCCA	-0.0553
GTTTGCGA	0.114
CGCCGAAC	0.101
TCACAAGA	-0.0277
ATGCGTAC	-0.153
ACCGAGAA	0.192
CTCCTAAC	-0.181
